For this assay, the system named is TYKNU. Put plainly: fractional viability relative to vehicle; TYKNU is a high-grade serous ovarian cancer line; higher = less growth inhibition. To be noted: 72 h, genotype: OPA1 knockout (sgOPA1 #2). Summed up: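 TYKNU control cells or lentiCRISPRv2 knockout derivatives were seeded at 500 cells per well into drug-stamped 384-well plates holding a ~2100-compound library at 2 or 10 μM, in duplicate. Cells were grown at 37 °C in 5% CO2 in RPMI 1640 with 10% FBS, and drug treatment lasted 72 h. Viability was read by Cell Titer Glo luminescence. Duplicate treatment wells were averaged and normalised to duplicate control wells from the same plate position.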

Structures are written as SMILES. Structures can show the parent of a compound that is named as a salt. In all, about 2,000 compounds were measured (“fractional viability relative to vehicle”: median about 0.92, lowest 2% from about 0.11 on). Some of the results follow.

For `Cc1ccc2c(=O)c3cccc(CC(=O)O)c3oc2c1C` [DMXAA (Vadimezan)], the fractional viability reads like this: (2uM) 1.14; (10uM) 1.07.

For the compound `CCOC(=O)c1[nH]c2cc(Cl)ccc2c1C(C(=O)NC(C)(C)C)N(C=O)Cc1ccc(Cl)cc1` (centres undefined), the fractional viability by setting is: (2uM) 0.864; (10uM) 0.464.

Turning to `CCCCN1CCCCC1C(=O)Nc1c(C)cccc1C` (centres undefined) [Bupivacaine HCl], the fractional viability by setting is: (2uM) 0.883; (10uM) 1.18.

Take `O=C1NCCCc2c1oc1ccc(O)cc21`: the fractional viability runs as follows: (2uM) 1.1; (10uM) 1.15.

Take `COc1ccccc1OCC(O)COC(N)=O` (centres undefined) [Methocarbamol]: the fractional viability worked out at 0.973 (2uM) and 0.984 (10uM).

As to `CCc1c(Cl)c(O)c(Cl)c(O)c1C(=O)O[C@H]1[C@H](O)[C@H](OC)[C@H](OC/C2=C\C=C\C[C@H](O)/C(C)=C/[C@H](CC)[C@@H](O[C@@H]3OC(C)(C)[C@@H](OC(=O)C(C)C)[C@H](O)[C@@H]3O)/C(C)=C/C(C)=C/C[C@@H]([C@@H](C)O)OC2=O)O[C@@H]1C` [Fidaxomicin], the fractional viability came out at 1.09 (2uM) and 0.7 (10uM).

With `Nc1ccn([C@@H]2CS[C@H](CO)O2)c(=O)n1` [Lamivudine], the fractional viability runs as follows: (2uM) 0.862; (10uM) 0.907.

Take `COC(=O)Nc1nc2cc([S+]([O-])c3ccccc3)ccc2[nH]1` (centres undefined) [Oxfendazole]: the fractional viability came to 0.993 (2uM) and 0.99 (10uM).

With `N#Cc1c(NC(=O)c2cccc3ccccc23)sc2c1CCCC2` [JNK Inhibitor IX], the fractional viability runs as follows: (2uM) 0.428; (10uM) 0.386.

Consider `C=CC(=O)Nc1cccc(Nc2nc(Nc3ccc(OCCOC)cc3)ncc2F)c1`, for which the fractional viability reads like this: (2uM) 0.823; (10uM) 0.577.

With `CCC(=O)Nc1cccc(Oc2nc(Nc3ccc(N4CCN(C)CC4)cc3OC)ncc2Cl)c1`, the fractional viability came to 0.956 (2uM) and 0.769 (10uM).

`O=C(C[S+]([O-])Cc1ccco1)NC/C=C\COc1cc(CN2CCCCC2)ccn1` (centres undefined) [Lafutidine]: the fractional viability was found to be 1.1 (2uM) and 1.05 (10uM).

For the compound `C#CCC(Cc1cnc2nc(N)nc(N)c2n1)c1ccc(C(=O)N[C@@H](CCC(=O)O)C(=O)O)cc1` (some centres undefined) [Pralatrexate], the fractional viability runs as follows: (2uM) 0.642; (10uM) 0.551.

For the compound `O=C(c1ccccc1)c1ccc2n1CCC2C(=O)O` (centres undefined) [Ketorolac], the fractional viability reads like this: (2uM) 1.02; (10uM) 1.01.

Turning to `COc1c(N2CCNC(C)C2)c(F)cc2c(=O)c(C(=O)O)cn(C3CC3)c12` (centres undefined) [Gatifloxacin], the fractional viability came out at 1.28 (2uM) and 1.18 (10uM).

Turning to `CCN(CC)CCCC(C)Nc1nc(C)cc(Nc2ccc3nc(C)cc(N)c3c2)n1` (centres undefined), the fractional viability was 0.891 (2uM) and 0.898 (10uM).

Consider `COc1ccc(S(=O)(=O)N(CCO)c2ccccc2CN(C)C/C=C/c2ccc(Cl)cc2)cc1` [KN-93 Phosphate], for which the fractional viability reads like this: (2uM) 0.76; (10uM) 0.524.

With `O=C(Nc1ccccc1Br)N[C@@H]1CCN(c2ccc(C(F)(F)F)cn2)C1`, the fractional viability was found to be 0.807 (2uM) and 0.82 (10uM).

`O=C(NOCC(O)CO)c1cc(Br)c(F)c(F)c1Nc1ccc(I)cc1F` (centres undefined): the fractional viability runs as follows: (2uM) 0.756; (10uM) 0.448.

Regarding `CN(C)CC(c1ccc(O)cc1)C1(O)CCCCC1` (centres undefined) [Desvenlafaxine], the fractional viability is, setting by setting: (2uM) 1.14; (10uM) 1.01.

Turning to `CN(C)CC(c1ccc(O)cc1)C1(O)CCCCC1` (centres undefined) [Desvenlafaxine Succinate], the fractional viability is, setting by setting: (2uM) 1.12; (10uM) 0.972.

`CN(C)C/C=C/C(=O)Nc1cc2c(Nc3ccc(F)c(Cl)c3)ncnc2cc1O[C@H]1CCOC1` [Afatinib (BIBW2992)]: the fractional viability (2uM) was 0.907 and the fractional viability (10uM) worked out at 0.236.

Regarding `CN(C)C/C=C/C(=O)Nc1cc2c(Nc3ccc(F)c(Cl)c3)ncnc2cc1O[C@H]1CCOC1` [Afatinib (BIBW2992) Dimaleate], the fractional viability stood at 0.82 (2uM) and 0.722 (10uM).

In the case of `O=C(Nc1ccccc1)Nc1ccc(-c2ccc(C(=O)[C@@H]3CCC[C@H]3C(=O)O)cc2)cc1`, the fractional viability is 0.882 (2uM) and 0.847 (10uM).

Turning to `O=C1NC(=O)C(c2ccccc2)(c2ccccc2)N1` [Phenytoin], the fractional viability reads like this: (2uM) 1.05; (10uM) 1.16.

For the compound `CC(C)(O)c1ccccc1CC[C@@H](SCC1(CC(=O)O)CC1)c1cccc(/C=C/c2ccc3ccc(Cl)cc3n2)c1` [Montelukast Sodium], the fractional viability stood at 0.964 (2uM) and 0.947 (10uM).

`Cc1cc(OCc2nnc(SC3CCCC3)n2-c2cccnc2)ccc1-c1ccc(S(C)(=O)=O)cc1`: the fractional viability runs as follows: (2uM) 0.693; (10uM) 0.201.

For `CNC(=O)c1ccc(C)c(-n2c(C)cc(OCc3ccc(F)cc3F)c(Br)c2=O)c1`, the fractional viability turned out to be 1.09 (2uM) and 0.96 (10uM).

Regarding `CCCCCCCCCCCC[N+](C)(C)CCOc1ccccc1` [Domiphen Bromide], the fractional viability reads like this: (2uM) 0.653; (10uM) 0.194.

`Cc1ccc(-n2nc(C(C)(C)C)cc2NC(=O)Nc2ccc(OCCN3CCOCC3)c3ccccc23)cc1` [BIRB 796 (Doramapimod)]: the fractional viability came to 1.26 (2uM) and 1.07 (10uM).

Regarding `c1ccc(CN(CC2=NCCN2)c2ccccc2)cc1` [Antazoline HCl], the fractional viability is, setting by setting: (2uM) 0.961; (10uM) 0.764.

Regarding `CN(C)Cc1ccc(S(=O)(=O)n2ccc(/C=C/C(=O)NO)c2)cc1` [Resminostat], the fractional viability by setting is: (2uM) 0.836; (10uM) 0.308.

As to `Nc1ncnc2n[nH]c(Nc3ccc(F)cc3)c12`, the fractional viability is, setting by setting: (2uM) 0.989; (10uM) 0.896.

For `CC[C@H](C)C[C@H](C)CCCCCCCCC(=O)N[C@H]1C[C@@H](O)[C@@H](NCCN)NC(=O)[C@@H]2[C@@H](O)CCN2C(=O)[C@H]([C@H](O)CCN)NC(=O)[C@H]([C@H](O)[C@@H](O)c2ccc(O)cc2)NC(=O)[C@@H]2C[C@@H](O)CN2C(=O)[C@H]([C@@H](C)O)NC1=O` [Caspofungin Acetate], the fractional viability stood at 1.01 (2uM) and 1.02 (10uM).

Consider `CCn1cc(NC(=S)Nc2cc(Cl)ccc2OC)c(C(N)=O)n1`, for which the fractional viability was determined as 0.941 (2uM) and 0.905 (10uM).

In the case of `CN(C)CC/C=C1/c2ccccc2COc2ccc(CC(=O)O)cc21` [Olopatadine HCl], the fractional viability reads like this: (2uM) 1; (10uM) 0.882.

As for `O=C(/C=C/c1ccc(O)c(O)c1)O[C@@H]1C[C@](O)(C(=O)O)C[C@@H](O)[C@H]1O` [Chlorogenic Acid], the fractional viability is, setting by setting: (2uM) 0.982; (10uM) 0.751.

For the compound `C[C@@H]1COC(Nc2ccc3ncnc(Nc4ccc(OCc5nccs5)c(Cl)c4)c3c2)=N1` [Varlitinib], the fractional viability reads like this: (2uM) 1.53; (10uM) 0.649.

`Oc1cccc(-c2nc(N3CCOCC3)c3oc4ncccc4c3n2)c1` had a fractional viability (2uM) of 0.47 and a fractional viability (10uM) of 0.451.

Regarding `Cn1cc(-c2ccc3c(c2)CCN3C(=O)Cc2cccc(C(F)(F)F)c2)c2c(N)ncnc21`, the fractional viability amounted to 1.17 (2uM) and 0.836 (10uM).

Regarding `CC(=O)OCC(=O)[C@H]1CC[C@H]2[C@@H]3CCC4=CC(=O)CC[C@]4(C)[C@H]3CC[C@]12C` [Deoxycorticosterone acetate], the fractional viability worked out at 1.03 (2uM) and 0.975 (10uM).

`C#C[C@]1(O)CC[C@H]2[C@@H]3CCC4=CC(=O)CC[C@@H]4[C@H]3CC[C@@]21CC` [Levonorgestrel]: the fractional viability reads like this: (2uM) 1.19; (10uM) 1.09.

Source of the values: the supplement of paper PMC5919970.
